Results as given in publication PMC4336329 (PLoS ONE, 2015).
Hit rate of the full screen: of about 310,000 compounds, about 2,200 (0.71%) showed an effect of 50% or more. The effect is printed as a negative number. Some of the results follow.

Molecular target: human ether-à-go-go-related gene (hERG) potassium channel (human, UniProt Q12809)
Assay: primary screen, population patch clamp on CHO cells stably expressing hERG

Chain of human ether-à-go-go-related gene (hERG) potassium channel (Q12809 whole entry, looked up): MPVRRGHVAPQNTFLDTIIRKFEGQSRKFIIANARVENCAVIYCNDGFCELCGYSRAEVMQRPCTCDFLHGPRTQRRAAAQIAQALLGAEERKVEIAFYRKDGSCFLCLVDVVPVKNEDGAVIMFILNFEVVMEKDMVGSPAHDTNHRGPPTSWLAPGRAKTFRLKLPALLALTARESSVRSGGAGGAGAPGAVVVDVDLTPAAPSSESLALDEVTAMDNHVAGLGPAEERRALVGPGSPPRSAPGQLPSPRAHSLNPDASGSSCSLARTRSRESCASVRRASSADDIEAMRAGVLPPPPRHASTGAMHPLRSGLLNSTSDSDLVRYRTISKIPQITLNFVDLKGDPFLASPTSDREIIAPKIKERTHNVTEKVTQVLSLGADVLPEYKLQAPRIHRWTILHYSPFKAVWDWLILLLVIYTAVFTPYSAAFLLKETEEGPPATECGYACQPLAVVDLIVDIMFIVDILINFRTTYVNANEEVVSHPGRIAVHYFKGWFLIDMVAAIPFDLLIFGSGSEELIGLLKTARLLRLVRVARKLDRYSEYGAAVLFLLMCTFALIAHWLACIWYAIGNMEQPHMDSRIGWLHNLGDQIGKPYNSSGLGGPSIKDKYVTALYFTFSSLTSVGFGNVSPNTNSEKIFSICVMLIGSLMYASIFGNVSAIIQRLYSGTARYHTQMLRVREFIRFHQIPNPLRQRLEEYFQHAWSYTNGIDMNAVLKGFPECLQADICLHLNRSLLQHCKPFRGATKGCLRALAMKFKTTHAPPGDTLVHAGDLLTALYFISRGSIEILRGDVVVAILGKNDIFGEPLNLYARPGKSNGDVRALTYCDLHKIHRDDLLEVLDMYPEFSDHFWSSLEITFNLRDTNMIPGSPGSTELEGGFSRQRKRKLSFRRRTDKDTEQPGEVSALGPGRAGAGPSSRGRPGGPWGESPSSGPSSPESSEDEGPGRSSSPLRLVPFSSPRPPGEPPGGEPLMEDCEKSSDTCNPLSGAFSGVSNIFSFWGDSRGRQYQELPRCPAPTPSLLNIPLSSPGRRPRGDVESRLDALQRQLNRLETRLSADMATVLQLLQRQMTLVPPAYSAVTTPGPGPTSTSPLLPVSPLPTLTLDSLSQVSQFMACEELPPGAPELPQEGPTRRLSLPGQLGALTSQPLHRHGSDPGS

| SMILES | hERG current change (%, negative = inhibition) at 1uM |
| --- | --- |
| C(=N\Nc1nc(N2CCCC2)nc(N2CCCC2)n1)/c1ccncc1 | 11.2% |
| CN(C)S(=O)(=O)c1cccc(N=C2NN=C(c3ccccc3)CS2)c1 | 9.8% |
| CC(=O)N/N=C/C1=CCC2CC1C2(C)C (stereo not drawn) | 39.9% |
| O=C(Nc1cccc(F)c1)c1cc(S(=O)(=O)N2CCC3(CC2)OCCO3)ccc1F | 4.06% |
| O=C(NCCCN1CCOCC1)C(=O)N/N=C/c1ccc2c(c1)OCO2 | 17.4% |
| COc1cc(NC(=O)CCN2CCN(c3ccccc3F)CC2)cc(OC)c1 | -7.08% |
| O=C(NCCc1ccccn1)c1cc(-c2ccc(Cl)cc2)nc2ccccc12 | 10.7% |
| NN=C(c1ccccc1)c1ccccc1 | 13% |
| Nc1nc2ncc(C(=O)c3cc(F)ccc3O)cc2s1 | 5.05% |
| CCC(CC)c1nc2ccccc2c(=O)[nH]1 | 2.78% |
| Cc1ccc(C)c(N2CC(C(=O)Nc3cc(C)on3)CC2=O)c1 (stereo not drawn) | 6.94% |
| CCC(C)Sc1cccc(-c2nc3ccc(C)cn3c2NC2CCCCC2)c1.O=C(O)C(F)(F)F (stereo not drawn) | 15.9% |
| CCN(C(=O)CSc1nnc(Nc2ccccc2)s1)C1CCS(=O)(=O)C1 (stereo not drawn) | -3.14% |
| CCC(Oc1ccccc1)C(=O)NCc1ccc(S(N)(=O)=O)cc1 (stereo not drawn) | -0.774% |
| CCOC(=O)C1=C[C@]2(CC)CCCN3CCc4c(n1c1ccccc41)[C@@H]32 | -95.5% |
| COc1cc(SC)ccc1C(=O)Nc1nc2ccccc2[nH]1 | 11.2% |
| CCN1CCN(c2cc(C)c3cc(NC(=O)Cc4ccccc4OC)ccc3n2)CC1 | -16.1% |
| Cc1csc(NC(=O)/C=C/c2ccc(C)o2)n1 | 24.8% |
| Cc1nn(CC(=O)NC(C)c2ccccc2)c(C)c1[N+](=O)[O-] (stereo not drawn) | 5.15% |
| COC(=O)C1CCN(C(=O)CSc2ccccc2)CC1 | 4.36% |
| CCOc1ccc(C2C3=C(CCCC3=O)N(CC(=O)O)C3=C2C(=O)CCC3)cc1 | 9.15% |
| CC(C)OC(=O)c1ccc(NC(=O)c2ccccc2)cc1 | 9.37% |
| CCOc1ccc2nc(NC(=O)C3=NNC(=O)CC3)sc2c1 | 9.84% |

| SMILES | hERG current change (%, negative = inhibition) at 1uM |
| --- | --- |
| Cc1ccc(CC2S/C(=C(/C#N)C(=O)NCc3ccco3)N(c3ccccc3)C2=O)cc1 (stereo not drawn) | 14.8% |
| COc1ccc(CNC(=O)C(c2ccc(C)o2)N(C(=O)c2snc(C(N)=O)c2N)c2ccccc2OC)cc1 (stereo not drawn) | 12.5% |
| O=c1[nH]c(CN2CCOCC2)nc2scc(-c3ccccc3)c12 | 14% |
| Cc1cc(C)c(S(C)(=O)=O)c(Oc2cccc(C(F)(F)F)c2)n1 | 13.4% |
| O=C(NNC(=O)c1cc(-c2cccnc2)nc2ccccc12)Nc1ccc(Cl)cc1 | -6.26% |
| O=C(NC1CC1)c1ccc(F)cc1Cl | 14.2% |
| Cc1ccc(-n2nc(C)c(NC(=O)CCl)c2C)cc1 | 2.44% |
| Cn1c(=O)c2c(nc(NCc3ccccc3)n2C)n(C)c1=O | 9.56% |
| Cc1ccc(C)c2[nH]c(=O)c(CCNC(=O)c3ccc(S(=O)(=O)N(C)C)cc3)cc12 | 11.3% |
| Cc1cc(C)cc(OCC(=O)NCc2cc(C)nc3ccccc23)c1 | 2.81% |
| CCOC(=O)C(=O)C1=CN(Cc2ccccc2)C=C(C#N)C1 | 11.5% |
| Oc1ccccc1C(=S)N1CCCCC1 | 10.4% |
| COc1ccc(NC(=O)NN2CCOCC2)cc1OC | 17.4% |
| COc1cccc(CNC(=O)CNS(=O)(=O)c2ccc(Br)s2)c1 | 15% |
| O=C(COc1ccc(F)cc1)N1CCc2ccccc2C1 | 4.97% |
| Cc1c(NC(=O)c2cccs2)cccc1-c1nc2ccccc2s1 | 15.9% |
| Cc1cccn2c(=O)c(/C=C(\C#N)C(N)=O)c(N3CCN(c4cccc(Cl)c4)CC3)nc12 | 5.3% |
| Cc1cc(N2CCOCC2)nc2ccc(NC(=S)N3CCN(c4ccccc4)CC3)cc12 | 12% |
| Cc1ccc(NC(=O)/C(=C/c2cccc(Br)c2)NC(=O)c2ccco2)cc1 | -20.6% |
| O=C1C2CC=CCC2C(=O)N1c1ccc(NCCc2ccccc2F)c([N+](=O)[O-])c1 (stereo not drawn) | 8.82% |
| CCCCn1c(=O)c(C(=O)Nc2cnccn2)c(O)c2ccccc21 | 0.998% |
| O=C(NC1=NCCS1)NC12CC3CC(CC(C3)C1)C2 | 16.6% |
